The list shows a part of the results. Interaction screen of human proteins with wild-type SARS-CoV-2 proteins by split-DHFR complementation in yeast, 1 µg/mL methotrexate. Value = fitness of the pair (three or more lineages) minus that of the viral protein without a human partner, on a scale set by negative (0) and fused positive (1) controls, mean of up to three cultures; higher = more likely to interact. Active = false discovery rate below 0.05 (one-sided t-test) in at least one culture. Nearly all pairs are not hits, and differences among them are mostly noise (correlation between cultures about 0.3); most hits were seen in one culture only. Human sequences are the Swiss-Prot entries looked up by gene name; the clone may be another isoform. NSP2 values were corrected by the authors for a growth advantage. Listed are human proteins with a hit and a random twelfth of the others.
Columns and labels:
Assay in all cases: yeast fitness gain over the viral ORF with no human partner (scaled fitness); higher = more likely to interact
SARS-CoV-2 E = molecular target: SARS-CoV-2 E
Description: (§1)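 Split mouse DHFR complementation in pooled diploid yeast: human ORFeome clones carry one fragment and viral ORFs the other; barcoded lineages compete in 1 µg/mL methotrexate and fitness is read by barcode sequencing in up to three cultures.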

SARS-CoV-2 M = molecular target: SARS-CoV-2 M
Description: as §1

SARS-CoV-2 N = molecular target: SARS-CoV-2 N
Description: as §1

SARS-CoV-2 NSP1 = molecular target: SARS-CoV-2 NSP1
Description: as §1

SARS-CoV-2 NSP10 = molecular target: SARS-CoV-2 NSP10
Description: as §1

SARS-CoV-2 NSP12 = molecular target: SARS-CoV-2 NSP12
Description: as §1

SARS-CoV-2 NSP13 = molecular target: SARS-CoV-2 NSP13
Description: as §1

SARS-CoV-2 NSP14 = molecular target: SARS-CoV-2 NSP14
Description: as §1

SARS-CoV-2 NSP15 = molecular target: SARS-CoV-2 NSP15
Description: as §1

SARS-CoV-2 NSP16 = molecular target: SARS-CoV-2 NSP16
Description: as §1

SARS-CoV-2 NSP2 = molecular target: SARS-CoV-2 NSP2
Description: as §1

SARS-CoV-2 NSP4 = molecular target: SARS-CoV-2 NSP4
Description: as §1

SARS-CoV-2 NSP5 = molecular target: SARS-CoV-2 NSP5
Description: as §1

SARS-CoV-2 NSP6 = molecular target: SARS-CoV-2 NSP6
Description: as §1

SARS-CoV-2 NSP7 = molecular target: SARS-CoV-2 NSP7
Description: as §1

SARS-CoV-2 NSP8 = molecular target: SARS-CoV-2 NSP8
Description: as §1

SARS-CoV-2 NSP9 = molecular target: SARS-CoV-2 NSP9
Description: as §1

SARS-CoV-2 ORF10 = molecular target: SARS-CoV-2 ORF10
Description: as §1

SARS-CoV-2 ORF3A = molecular target: SARS-CoV-2 ORF3A
Description: as §1

SARS-CoV-2 ORF3B = molecular target: SARS-CoV-2 ORF3B
Description: as §1

SARS-CoV-2 ORF6 = molecular target: SARS-CoV-2 ORF6
Description: as §1

SARS-CoV-2 ORF7A = molecular target: SARS-CoV-2 ORF7A
Description: as §1

SARS-CoV-2 ORF7B = molecular target: SARS-CoV-2 ORF7B
Description: as §1

SARS-CoV-2 ORF8 = molecular target: SARS-CoV-2 ORF8
Description: as §1

SARS-CoV-2 ORF9B = molecular target: SARS-CoV-2 ORF9B
Description: as §1

[1] = molecular target: SARS-CoV-2 ORF9Bwu (the 73-codon ORF)
Description: as §1

SARS-CoV-2 S = molecular target: SARS-CoV-2 S
Description: as §1

Binder | yeast fitness gain (SARS-CoV-2 E) | yeast fitness gain (SARS-CoV-2 M) | yeast fitness gain (SARS-CoV-2 N) | yeast fitness gain (SARS-CoV-2 NSP1) | yeast fitness gain (SARS-CoV-2 NSP10) | yeast fitness gain (SARS-CoV-2 NSP12) | yeast fitness gain (SARS-CoV-2 NSP13) | yeast fitness gain (SARS-CoV-2 NSP14) | yeast fitness gain (SARS-CoV-2 NSP15) | yeast fitness gain (SARS-CoV-2 NSP16) | yeast fitness gain (SARS-CoV-2 NSP2) | yeast fitness gain (SARS-CoV-2 NSP4) | yeast fitness gain (SARS-CoV-2 NSP5) | yeast fitness gain (SARS-CoV-2 NSP6) | yeast fitness gain (SARS-CoV-2 NSP7) | yeast fitness gain (SARS-CoV-2 NSP8) | yeast fitness gain (SARS-CoV-2 NSP9) | yeast fitness gain (SARS-CoV-2 ORF10) | yeast fitness gain (SARS-CoV-2 ORF3A) | yeast fitness gain (SARS-CoV-2 ORF3B) | yeast fitness gain (SARS-CoV-2 ORF6) | yeast fitness gain (SARS-CoV-2 ORF7A) | yeast fitness gain (SARS-CoV-2 ORF7B) | yeast fitness gain (SARS-CoV-2 ORF8) | yeast fitness gain (SARS-CoV-2 ORF9B) | yeast fitness gain [1] | yeast fitness gain (SARS-CoV-2 S)
TMPRSS2, O15393 (protein) MALNSGSPPAIGPYYENHGYQPENPYPAQPTVVPTVYEVHPAQYYPSPVPQYAPRVLTQASNPVVCTQPKSPSGTVCTSKTKKALCITLTLGTFLVGAALAAGLLWKFMGSKCSNSGIECDSSGTCINPSNWCDGVSHCPGGEDENRCVRLYGPNFILQVYSSQRKSWHPVCQDDWNENYGRAACRDMGYKNNFYSSQGIVDDSGSTSFMKLNTSAGNVDIYKKLYHSDACSSKAVVSLRCIACGVNLNSSRQSRIVGGESALPGAWPWQVSLHVQNVHVCGGSIITPEWIVTAAHCVEKPLNNPWHWTAFAGILRQSFMFYGAGYQVEKVISHPNYDSKTKNNDIALMKLQKPLTFNDLVKPVCLPNPGMMLQPEQLCWISGWGATEEKGKTSEVLNAAKVLLIETQRCNSRYVYDNLITPAMICAGFLQGNVDSCQGDSGGPLVTSKNNIWWLIGDTSWGSGCAKAYRPGVYGNVMVFTDWIYRQMRADG | inactive: -0.0173 | inactive: 0.046 | inactive: -0.123 | inactive: -0.0465 | inactive: 0.00756 | inactive: 0.04 | inactive: 0.0227 | inactive: -0.00948 | inactive: 0.0337 | inactive: 0.0546 | inactive: -0.127 | inactive: -0.112 | inactive: 0.0357 | inactive: -0.0166 | inactive: 0.0713 | inactive: 0.0313 | inactive: -0.0642 | inactive: 0.0578 | inactive: -0.003 | inactive: 0.0187 | inactive: -0.0162 | inactive: 0.0134 | inactive: -0.00222 | inactive: 0.0268 | inactive: 0.0135 | inactive: 0.0337 | inactive: 0.00824
NGFRAP1, Q00994 (protein) MANIHQENEEMEQPMQNGEEDRPLGGGEGHQPAGNRRGQARRLAPNFRWAIPNRQINDGMGGDGDDMEIFMEEMREIRRKLRELQLRNCLRILMGELSNHHDHHDEFCLMP | inactive: 0.0275 | inactive: -0.0412 | inactive: 0.0661 | inactive: -0.157 | inactive: 0.0664 | inactive: 0.0611 | inactive: -0.000712 | inactive: 0.13 | inactive: 0.0572 | inactive: -0.161 | inactive: -0.152 | – | inactive: -0.0176 | inactive: -0.0138 | inactive: 0.0726 | – | inactive: 0.00604 | inactive: 0.0331 | inactive: -0.0184 | inactive: 0.0111 | inactive: 0.0322 | inactive: 0.0146 | inactive: -0.0323 | inactive: -0.021 | inactive: -0.0187 | – | inactive: -0.00753
GRPEL2, Q8TAA5 (protein) MAVRSLWAGRLRVQRLLAWSAAWESKGWPLPFSTATQRTAGEDCRSEDPPDELGPPLAERALRVKAVKLEKEVQDLTVRYQRAIADCENIRRRTQRCVEDAKIFGIQSFCKDLVEVADILEKTTECISEESEPEDQKLTLEKVFRGLLLLEAKLKSVFAKHGLEKLTPIGDKYDPHEHELICHVPAGVGVQPGTVALVRQDGYKLHGRTIRLARVEVAVESQRRL | inactive: 0.0443 | inactive: 0.0821 | – | inactive: -0.0368 | inactive: 0.00173 | inactive: 0.0951 | inactive: 0.0168 | inactive: -0.0324 | inactive: 0.0508 | inactive: -0.2 | inactive: -0.179 | inactive: -0.122 | inactive: 0.0215 | inactive: 0.0406 | inactive: 0.0203 | inactive: -0.00795 | inactive: -0.0431 | inactive: 0.0456 | inactive: -0.0437 | inactive: -0.00992 | inactive: -0.00119 | inactive: 0.0613 | inactive: -0.0497 | inactive: -0.00832 | inactive: 0.00926 | inactive: 0.172 | inactive: 0.0457
HMGB2, P26583 (protein) MGKGDPNKPRGKMSSYAFFVQTCREEHKKKHPDSSVNFAEFSKKCSERWKTMSAKEKSKFEDMAKSDKARYDREMKNYVPPKGDKKGKKKDPNAPKRPPSAFFLFCSEHRPKIKSEHPGLSIGDTAKKLGEMWSEQSAKDKQPYEQKAAKLKEKYEKDIAAYRAKGKSEAGKKGPGRPTGSKKKNEPEDEEEEEEEEDEDEEEEDEDEE | inactive: 0.121 | inactive: -0.1 | inactive: 0.000305 | inactive: 0.0221 | inactive: 0.0118 | inactive: -0.078 | inactive: -0.0529 | inactive: -0.445 | inactive: -0.0784 | – | active: 0.547 | inactive: -0.175 | inactive: 0.0505 | inactive: -0.0484 | inactive: 0.0157 | inactive: 0.0629 | inactive: -0.0129 | inactive: 0.00123 | inactive: 0.0493 | inactive: 0.0143 | inactive: 0.00848 | inactive: -0.00364 | inactive: -0.00553 | inactive: 0.022 | inactive: -0.00332 | inactive: -0.0908 | inactive: 0.0158
SRP14, P37108 (protein) MVLLESEQFLTELTRLFQKCRTSGSVYITLKKYDGRTKPIPKKGTVEGFEPADNKCLLRATDGKKKISTVVSSKEVNKFQMAYSNLLRANMDGLKKRDKKNKTKKTKAAAAAAAAAPAAAATAPTTAATTAATAAQ | inactive: 0.0357 | inactive: -0.0251 | inactive: -0.0658 | inactive: 0.0533 | inactive: 0.043 | inactive: 0.0567 | inactive: -0.003 | – | inactive: 0.0342 | inactive: -0.0186 | inactive: -0.168 | – | inactive: -0.0378 | inactive: -0.0304 | inactive: -0.0936 | inactive: -0.0432 | inactive: 0.00538 | inactive: 0.0221 | inactive: -0.0742 | inactive: 0.0172 | inactive: 0.0149 | inactive: -0.057 | inactive: 0.0115 | inactive: -0.0279 | inactive: 0.036 | inactive: -0.0135 | inactive: 6e-05
